According to the supplement of paper PMC8674133:

B1: C2330 (protein)
chain 1: EVQLVESGAEVKKPGESLKISCKGSGYSFTSYWIGWVRQMPGKGLEWMGIIYPGDSDTRYSPSFQGQVTISADKSISTAYLQWSSLKASDTAMYYCAIAKYMYYDILTGYYKDGWSFDPWGQGTLVTVSS
chain 2: QSALTQPASVSGSPGQSITISCTGTSSDVGGYNYVSWYQQHPGKAPKLLIYDVNNRPSGVSNRFSGSKSGNTASLTISGLQAEDEADYYCSSYTSSSTLGVFGGGTKLTVL
B2: C2314 (protein)
chain 1: EVQLVESGGGLVQPGRSLRLSCAASGFTFDDYAMHWVRQAPGKGLEWISGISWNSGSIGYADSVKGRFTISRDNAKNSLYLQMNSLRAEDTALYYCAKAHVVTVMIKGPFWFDPWGQGTLVTVSS
chain 2: EIVMTQSPATLSVSPGERATLSCRASQSVNSNLAWYQQKPGQAPRLLIYGASTRATGIPARFSGSGSGTEFTLTISSLQSEDFAVYYCQQYNNWPPGITFGQGTRLEIK
B3: C2315 (protein)
chain 1: VQLVESGGGVVQPGRSLRLSCAASGFTFSSYGMHWVRQAPGKGLEWVAVISYDGSNKYYADSVKGRFTISRDNSKNTLYLQMNSLRAEDTAVYYCAKAGGAYCGGDCPSSLDYWGQGTLVTVSS
chain 2: IRMTQSPSSLSASVGDRVTITCQASQDISNYLNWYQQKPGKAPKLLIYDASNLETGVPSRFSGSGSGTDFTFTISSLQPEDIATYYCQQYDNLPRTFGQGTKVEIK
B4: C2316 (protein)
chain 1: QVQLVESGGGVVQPGRSLRLSCAASGFTFSSYGMHWVRQAPGKGLEWVAIVWHDGSNKYYADSVQGRFTISRDNSKNTLHLQMNSLRAEDTAVYYCARGDSSGWFPLGMDVWGQGTTVTVSS
chain 2: EIVLTQSPGTLSLSPGERATLSCRASQSVSSNYLAWYQQKPGQAPRLLIYGTSNRATGIPDRFSGSGSGTDFTLTVSRLEPEDFVVYYCQQYGSSPPYTFGQGTKLEIK
B5: C2317 (protein)
chain 1: QVQLVQSGAEVKKPGASVKVSCKASGYTFTSYFMHWVRQAPGQGLEWMGLINPSGGSTTYAQKFQGRVTMTRDTSTSTVYMELSSLRSEDTAVYYCARDFIEDGPNILTGFNWFDPWGQGTLVTVSS
chain 2: EIVMTQSPATLSVSPGERATLSCRASQSVSSNLAWYQQKPGQAPRLLIYGASTRATGIPARFSGSGSGTEFTLTISSLQSEDFAVYYCQHYNNWYTFGQGTKLEIK
B6: C2320 (protein)
chain 1: QVQLVQSGAEVKKPGASVKVSCKASGYTFISYYMHWVRQAPGQGLEWMGIINPSGGSTSYAQKLQGRVTMTTDTSTSTVYMELSSLRSEDTAVYYCARGPPPTVLTPFDFWGQGTLVTVSS
chain 2: EIVLTQSPATLSLSPGERATLSCRASQSVSSTLAWYQQKPGQAPRLLIYDASNRATGIPARFSGSGSGTDFTLTISSLEPEDFAVYYCQQRSNWPPGITFGGGTKVEIK
B7: C2321 (protein)
chain 1: EVQLVQSGAEVKKPGESLKISCKASGYSFTTYWIGWVRQMSGKGLEWMGIIYPGDSDTKYSPSFHGQVTISADKSISTAYLQWSSLKASDTAMYFCARRTSYYDSGGFYYLDYWGQGTLVTVSS
chain 2: DIQLTQSPSSLSASVGDRVTITCRASQSISSYLNWYQQKPGKAPKVLIYAESTLQSGVPSRFSGSGSGTDFTLTISSLQPEDFATYYCQQSYSTLALTFGGGTKVEIK
B8: C2332 (protein)
chain 1: QLQLQESGPGLVKPSETLSLTCTVSGGSISSSDYYWGWIRQPPGKGLEWIGSIYYSGNTYYNPSLKSRVTISVDTSKKQFSLKLSSVTAADTAVYYCARHGGIYYYDSSGYFFDYWGQGTLVTVSS
chain 2: QSALTQPASVSGSPGQSITISCTGTSSDVGGYNYVSWYQQHPGKAPKLMIYEVSNRRSGVSSRFSGSKSGSTASLTISGLQAEDEADYYCSSYTSTNTLVFGGGTKLTVL
B9: C2325 (protein)
chain 1: EVQLVESGGGVIQPGGSLRLSCAASGLTVSSNYMTWVRQAPGKGLEWVSVIYSGGSTYYADSVKGRCTISRDNSKNTLYLQMNSLRAEDTAVYYCARYMGDGMDVWGQGTTVTVSS
chain 2: DIQLTQSPSSVSASVGDTVTITCRASQGIGSWLAWYQQKPGKAPKLLIYAASSLQSGVPSRFSGSGSGTDFTLTISSLQPEDFATYYCQEANSFPPITFGQGTRLEIK
B10: C2244 (protein)
chain 1: EVQLVESGGGLVQPGGSLRLSCAASGFTVSSNYMTWVRQAPGKGLEWVSVIYSGGSTYYADSVKGRFTISRHNSKNTLYLQMNSLRAEDTAVYYCARDLEERGAFDIWGQGTMVTVSS
chain 2: DIQMTQSPSSLSASVGDRVTITCRASQGISSWLAWYQQKPGKAPKLLIYVASSLQSAVPSRFSGSGSGTDFTLTISSLQPEDFATYYCQQAHSFPLYTFGQGTKLEIK
B11: C2322 (protein)
chain 1: EVQLLESGGTLVQPGGSLRLSCVASGFTFDTYAMSWVRRAPGRGLEWVATFSGSGGKTYYADSVKGRFRISRDNSKNTLYLQMNSLRVEDTAVYYCARDQFRKKYDYWSAYYTHNYSGIGYFEEWGQGTLVTVSS
chain 2: B3 chain 2 with R95P, V103L
B12: C2323 (protein)
chain 1: QVQLVQSGAEVKKPGSSVKVSCKASGGTFSNYAIRWVRQAPGQGLEWMGGIIPIFGTANYAQKFQGRVTITADESTSTAYMELSSLRSEDTAVYYCAREPGLHTGHLDHWGQGTLVTVSS
chain 2: IRMTQSPSSLSASVGDRVNITCQASQDISNYVNWYQQKPGKAPKLLIYDASNLETGVPSRFSGSGSGTDFTFTISSLQPEDIATYYCQQYDNVPSLTFGGGTKVEIK
B13: C2011 (protein)
chain 1: QVQLQESGPGLVKPSETLSLTCTVSGGSISSYYWSWIRQPPGKGLEWIGYIYYSGSTNYNPSLKSRVTISVDTSKNQFSLKLSSVTAADTAVYYCASYYYDSSGYYYGMDVWGQGTTVTVSS
chain 2: DIQLTQSPSFLSASVGDRVTITCRASQGISSYLAWYQQKPGKAPKLLIYAASTLQSGVPSRFSGSGSGTEFTLTISSLQPEDFATYYCQQLNSYLTFGQGTRLEIK
B14: C2324 (protein)
chain 1: EVQLVESGGGLIQPGGSLRLSCAASGFTVSSNYMSWVRQAPGKGLEWVSVIYSGGSTYYADSVKGRFTISRDNSKNTLYLQMNSLRAEDTAVYYCARHPLPVSHYYYGMDVWGQGTTVTVSS
chain 2: B3 chain 2 with R95V, Q99G
B15: C2327 (protein)
chain 1: VQLVESGPGLVKPSETLSLTCTVSAGSITNYYWSWIRQPPGKGLEWIGYIYYSGSTNYNPSLKSRVTISVDTSKNQFSLKLSSVTAADTAVYYCARLAPFFYDSSGYYSRSFDYWGQGTLVTVSS
chain 2: QSALTQPASVSGSPGQSITISCTGTSSDVGSYNLVSWYQQHPGKAPKLMIYEGSKRPSGVSNRFSGSKSGNTASLTISGLQAEDEADYYCCSYAGSVLFGGGTKLTVL
B16: C2001 (protein)
chain 1: QVQLVQSGAEVKKPGSSVKVSCQASGGTFSNYGLSWVRQSPGQGLEWMGGIIPLFRTGNYAQKFQGRVTITADRSTSTVYMQLSGLTSEDTAVYFCARDLSPCLGGDCDLFGGGRKPHWYFGLWGRGTLVTVSS
chain 2: IVLTQSPGTLSLSPGERVTLSCRASQSVSSHLAWYQQKPGQAPRLLIHGASSRATGIPDRFSGSGSGTDFTLTISRLGPEDFAVYYCQQYGTSPTFGGGTKVEIK

Biological target: SARS-CoV-2 Wuhan-Hu-1 spike pseudovirus
Assay: pseudovirus neutralization IC50; higher = weaker neutralization
Method: (§1)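 Single-round luciferase reporter pseudovirus mixed with antibody dilutions and put on 293T-ACE2 cells for 48 h; signal relative to no-antibody wells, four-parameter fit.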

Binder	pseudovirus neutralization IC50
B1	> 1 µg/mL
B2	> 1 µg/mL
B3	> 1 µg/mL
B4	0.41 µg/mL
B5	0.86 µg/mL
B6	> 1 µg/mL
B7	0.343 µg/mL
B8	0.238 µg/mL
B9	0.0168 µg/mL
B10	0.0109 µg/mL
B11	> 1 µg/mL
B12	> 1 µg/mL
B13	> 1 µg/mL
B14	> 1 µg/mL
B15	> 1 µg/mL
B16	> 1 µg/mL

Biological target: SARS-CoV-2 Wuhan-Hu-1 spike pseudovirus
Assay: pseudovirus neutralization IC90; higher = weaker neutralization
Method: as §1

Binder	pseudovirus neutralization IC90
B1	> 1 µg/mL
B2	> 1 µg/mL
B3	> 1 µg/mL
B4	> 1 µg/mL
B5	> 1 µg/mL
B6	> 1 µg/mL
B7	> 1 µg/mL
B8	> 1 µg/mL
B9	0.0823 µg/mL
B10	0.0809 µg/mL
B11	> 1 µg/mL
B12	> 1 µg/mL
B13	> 1 µg/mL
B14	> 1 µg/mL
B15	> 1 µg/mL
B16	> 1 µg/mL

Biological target: SARS-CoV-2 Wuhan-Hu-1 spike receptor-binding domain
Assay: ELISA binding EC50; higher = weaker binding; ELISA of recombinant human antibody on coated antigen, from 10 µg/ml in fourfold dilutions; four-parameter fit.

Binder	ELISA binding EC50
B1	0.00661 µg/mL
B2	0.00371 µg/mL
B3	0.00364 µg/mL
B4	0.012 µg/mL
B5	0.00921 µg/mL
B6	0.00272 µg/mL
B7	0.00196 µg/mL
B8	0.00249 µg/mL
B9	0.00135 µg/mL
B10	0.00271 µg/mL
B11	> 10 µg/mL
B12	0.00266 µg/mL
B13	0.00362 µg/mL
B14	0.0101 µg/mL
B15	0.00529 µg/mL
B16	0.00523 µg/mL

Changes are numbered by the printed parent chain. Recombinant human monoclonal antibodies (heavy:light variable regions). ELISA EC50 on the named antigen, from 10 µg/ml down; IC50 / IC90 against spike pseudovirus on 293T-ACE2 cells, 48 h; lower = stronger. Calls: IC50 above 1,000 ng/ml = non-neutralizing; EC50 above 2,000 ng/ml = non-binder. The source prints 1000 for neutralization that was not reached; it is given as >1000 ng/ml. A few antibodies were first reported in earlier work of the same group.
